Drawing on a collection of fitness landscapes (doi:10.1126/science.1257360), this text covers enrichment ratio for 153 variants.

The other results are listed elsewhere or left out.

The chains are these.
B1: PhoQ; a variant is named by its letters at X, in order, P23837 (parent)
chain: MKKLLRLFFPLSLRVRFLLATAAVVLVLSLAYGMVALIGYSVSFDKTTFRLLRGESNLFYTLAKWENNKLHVELPENIDKQSPTMTLIYDENGQLLWAQRDVPWLMKMIQPDWLKSNGFHEIEADVNDTSLLLSGDHSIQQQLQEVREDDDDAEMTHSVAVNVYPATSRMPKLTIVVVDTIPVELKSSYMVWSWFIYVLSANLLLVIPLLWVAAWWSLRPIEALAKEVRELEEHNRELLNPATTRELTSLVRNLNRLLKSERERYDKYRTTLTDLTHSLKTPLXXLQXXLRSLRSEKMSVSDAEPVMLEQISRISQQIGYYLHRASMRGGTLLSRELHPVAPLLDNLTSALNKVYQRKGVNISLDISPEISFVGEQNDFVEVMGNVLDNACKYCLEFVEISARQTDEHLYIVVEDDGPGIPLSKREVIFDRGQRVDTLRPGQGVGLAVAREITEQYEGKIVAGESMLGGARMEVIFGRQHSAPKDE

The variants in the experiment derive from B1. The experiment can be described thus: enrichment ratio after two sorts for PhoP signalling (ratio (wild type AVST 3.29)); higher = more functional. The following applies: with PhoP (E. coli).
Consider NHWN, for which the enrichment ratio was at most 0.25.

For the variant MCWK, the enrichment ratio was at most 0.25.

On to LCGP, for which the enrichment ratio was at most 0.25.

With NKWR, the enrichment ratio was at most 0.25.

In the case of MSHW, the enrichment ratio is at most 0.25.

Consider DPDL, for which the enrichment ratio was at most 0.25.

Turning to RHGV, the enrichment ratio was at most 0.25.

Consider QIQA, for which the enrichment ratio was at most 0.25.

PDMH: the enrichment ratio is at most 0.25.

As for LQQG, the enrichment ratio is at most 0.25.

As for IYKL, the enrichment ratio was at most 0.25.

Regarding VRFA, the enrichment ratio was at most 0.25.

For NRFM, the enrichment ratio is at most 0.25.

Take IFAM: the enrichment ratio was at most 0.25.

Turning to RADC, the enrichment ratio was at most 0.25.

Consider RDKS, for which the enrichment ratio was at most 0.25.

As to QDTY, the enrichment ratio was at most 0.25.

For the variant GCIA, the enrichment ratio was at most 0.25.

With RNNK, the enrichment ratio was at most 0.25.

As to NMSF, the enrichment ratio is at most 0.25.

For the variant FNNQ, the enrichment ratio was at most 0.25.

As for LMHP, the enrichment ratio is at most 0.25.

As to FFDK, the enrichment ratio is at most 0.25.

Regarding SNKQ, the enrichment ratio is at most 0.25.

LMHC: the enrichment ratio is at most 0.25.

On to WMMG, for which the enrichment ratio is at most 0.25.

Turning to HAIR, the enrichment ratio is at most 0.25.

On to SSPM, for which the enrichment ratio was determined as 0.954.

Consider HDVA, for which the enrichment ratio was at most 0.25.

As to QQFY, the enrichment ratio turned out to be 4.21.

Consider VHHQ, for which the enrichment ratio is at most 0.25.

On to KCLG, for which the enrichment ratio is at most 0.25.

Take DFMK: the enrichment ratio is at most 0.25.

Consider SIGY, for which the enrichment ratio came to 14.3.

With NYKD, the enrichment ratio was at most 0.25.

For NLYD, the enrichment ratio was at most 0.25.

IGQV: the enrichment ratio is at most 0.25.

In the case of KRQG, the enrichment ratio was at most 0.25.

Consider VASN, for which the enrichment ratio was at most 0.25.

Regarding PAEK, the enrichment ratio was at most 0.25.

Turning to TGNV, the enrichment ratio amounted to 10.1.

Turning to MRHP, the enrichment ratio is at most 0.25.

In the case of TWKQ, the enrichment ratio was at most 0.25.

As to PPRN, the enrichment ratio is at most 0.25.

Regarding LRWH, the enrichment ratio is at most 0.25.

For RTWQ, the enrichment ratio is at most 0.25.

Turning to GPCL, the enrichment ratio was at most 0.25.

Consider FRAV, for which the enrichment ratio was at most 0.25.

Turning to LRMD, the enrichment ratio is at most 0.25.

As for DTWL, the enrichment ratio was at most 0.25.

Regarding MPDG, the enrichment ratio was at most 0.25.

Consider QNHL, for which the enrichment ratio was at most 0.25.

For the variant IADS, the enrichment ratio is at most 0.25.

In the case of TDSL, the enrichment ratio worked out at 2.46.

Take MQNP: the enrichment ratio was at most 0.25.

MPYT: the enrichment ratio was at most 0.25.

As for QQNH, the enrichment ratio was 12.7.

Turning to GDLA, the enrichment ratio is at most 0.25.

With HIGF, the enrichment ratio is at most 0.25.

For the variant RHHA, the enrichment ratio was at most 0.25.

Turning to ECPN, the enrichment ratio is at most 0.25.

HAYH: the enrichment ratio is at most 0.25.

For VSWF, the enrichment ratio was at most 0.25.

With PFER, the enrichment ratio was at most 0.25.

As to KKFM, the enrichment ratio was at most 0.25.

As for SVRA, the enrichment ratio is at most 0.25.

With MQDR, the enrichment ratio was at most 0.25.

With STNA, the enrichment ratio was at most 0.25.

HFRG: the enrichment ratio was at most 0.25.

Regarding QITK, the enrichment ratio was at most 0.25.

For the variant GTCI, the enrichment ratio amounted to 11.7.

WVNP: the enrichment ratio was at most 0.25.

With INWM, the enrichment ratio is at most 0.25.

Take VHRA: the enrichment ratio is at most 0.25.

Take EHTT: the enrichment ratio is at most 0.25.

For the variant ERVW, the enrichment ratio is at most 0.25.

As for LQMK, the enrichment ratio was at most 0.25.

Turning to KLEF, the enrichment ratio is at most 0.25.

As for LINC, the enrichment ratio is at most 0.25.

For YMCW, the enrichment ratio was at most 0.25.

VNCI: the enrichment ratio is 3.94.

For LTKI, the enrichment ratio was at most 0.25.

Take RVIC: the enrichment ratio is at most 0.25.

For IGKW, the enrichment ratio was at most 0.25.

SREA: the enrichment ratio was at most 0.25.

Take DHGQ: the enrichment ratio is at most 0.25.

Turning to VDMT, the enrichment ratio is at most 0.25.

For DNNP, the enrichment ratio is at most 0.25.

On to GYLV, for which the enrichment ratio was at most 0.25.

Take YIMV: the enrichment ratio amounted to 0.477.

In the case of RPFE, the enrichment ratio is at most 0.25.

For WYFG, the enrichment ratio is at most 0.25.

In the case of WLGY, the enrichment ratio is at most 0.25.

Take WELR: the enrichment ratio was at most 0.25.

Take PVPD: the enrichment ratio is at most 0.25.

Consider YGFQ, for which the enrichment ratio is at most 0.25.

As for ILFQ, the enrichment ratio is at most 0.25.

With QQSE, the enrichment ratio was at most 0.25.

Take PWMM: the enrichment ratio was at most 0.25.

Regarding RMFC, the enrichment ratio was at most 0.25.

Consider LKPR, for which the enrichment ratio was at most 0.25.

As for HPEL, the enrichment ratio is at most 0.25.

With MGSK, the enrichment ratio was at most 0.25.

SPNL: the enrichment ratio is at most 0.25.

Turning to DNDC, the enrichment ratio is at most 0.25.

Consider ESKS, for which the enrichment ratio is at most 0.25.

On to IPRP, for which the enrichment ratio was at most 0.25.

As to NVAS, the enrichment ratio was at most 0.25.

RAKA: the enrichment ratio is at most 0.25.

Regarding SHMW, the enrichment ratio amounted to 0.684.

On to MGRD, for which the enrichment ratio was at most 0.25.

For the variant PFEN, the enrichment ratio is at most 0.25.

In the case of ELSQ, the enrichment ratio is at most 0.25.

Consider STEH, for which the enrichment ratio is at most 0.25.

Turning to YDVE, the enrichment ratio is at most 0.25.

With PYIG, the enrichment ratio was at most 0.25.

As to SRRA, the enrichment ratio was at most 0.25.

Take SFHK: the enrichment ratio was at most 0.25.

For EWAI, the enrichment ratio is at most 0.25.

On to RHNN, for which the enrichment ratio is at most 0.25.

Consider PHMW, for which the enrichment ratio is at most 0.25.

As for DLKY, the enrichment ratio was at most 0.25.

With EAAQ, the enrichment ratio was at most 0.25.

Take WYLG: the enrichment ratio is at most 0.25.

For the variant LARE, the enrichment ratio is at most 0.25.

On to PGRE, for which the enrichment ratio was at most 0.25.

Take WTWP: the enrichment ratio was at most 0.25.

As for NQAI, the enrichment ratio was at most 0.25.

On to GIRC, for which the enrichment ratio is at most 0.25.

VKWT: the enrichment ratio is at most 0.25.

As for THCW, the enrichment ratio is at most 0.25.

In the case of ETDE, the enrichment ratio is at most 0.25.

Take GTSW: the enrichment ratio is at most 0.25.

For the variant DAWE, the enrichment ratio was at most 0.25.

Consider HLLD, for which the enrichment ratio was at most 0.25.

As to TDRY, the enrichment ratio is at most 0.25.

With LFRM, the enrichment ratio was at most 0.25.

As for VVLR, the enrichment ratio was at most 0.25.

Turning to VMVP, the enrichment ratio is at most 0.25.

Consider ISDM, for which the enrichment ratio was at most 0.25.

On to QSFH, for which the enrichment ratio came to 4.49.

On to QCSC, for which the enrichment ratio was at most 0.25.

Consider PCCE, for which the enrichment ratio was at most 0.25.

Turning to AKQC, the enrichment ratio was at most 0.25.

Regarding PNAY, the enrichment ratio is at most 0.25.

HFSP: the enrichment ratio was at most 0.25.

Consider ASQL, for which the enrichment ratio came out at 7.7.

For GQQF, the enrichment ratio was at most 0.25.

On to APGV, for which the enrichment ratio is at most 0.25.

Regarding SPNG, the enrichment ratio was at most 0.25.

Regarding YYDM, the enrichment ratio was at most 0.25.

As to VYQV, the enrichment ratio was at most 0.25.

Take EFCN: the enrichment ratio was at most 0.25.
